Results: the supplement of paper PMC10126150
Values marked as one replicate rest on one cluster of the flow cell; about a third of the high ones do not repeat.

Tested on: ATP
Assay: switch fluorescence ratio, 500 uM ATP over buffer (Cy3 cluster intensity, sum of 5 cycles each) (fold (ratio)); higher = stronger signal-on switching upon ATP binding; sequences stand for … in TCGTCGGCAGCGTCAGATGTGTATAAGAGACAGTTTTTTTTTTTTTTTTTTTTTTTTT…TC
Settings: aptamer strand: ATP DNA aptamer (quencher-CACCTGGGGGAGTATTGCGGAGGAAGG + anchor), 100 nM annealed; ATP concentration: 500 uM; one replicate
Outline: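 Cy3-labelled switching-strand clusters on a modified Illumina MiSeq flow-cell were annealed to 100 nM quencher-labelled ATP aptamer, imaged in selection buffer, then imaged after 15 min with 500 uM ATP at 22 °C. Five buffer/ATP cycles ran, with NaOH stripping and re-annealing between them. The fluorescence ratio is summed target-cycle over summed buffer-cycle Cy3 intensity per cluster, averaged per switch-domain sequence. Clusters outside 100-1000 RFU were excluded.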
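Further: ATP exposure 15 min at 22 °C before imaging.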

Sequence	switch fluorescence ratio
TTCAACAGAC	1.03
CGGTCACACC	1
AGACGTAATT	1.08
AGGTACTTTG	0.964
CTAATGGGAT	0.97
CTGGTGGAGA	0.979
GATAGAGGCA	0.987
ACGTGACTCA	1.29
TGTTAAGTTC	1.05
CAATCTGTCA	1.01
ATTTCGGGCG	0.974
AAAGTTGCCA	1.02
GCGTTTCATA	0.97
GCTGGCTCAG	0.971
ACGGACCCTC	1.29
TCGTGAATTA	1.01
CACGTTATT	1.12
CGAAGGCACA	1.33
ATATCGGTCG	0.968
GTGTGCCTAC	1.01
CACTATCCT	1.09
AACAGGGGC	0.929
TGCGCTGA	1.06

Sequence	switch fluorescence ratio
AATGTATTC	0.976
GTTTTTAGAG	0.987
CTTATTGGAG	0.971
GTATTGAGTT	0.999
ATTGTTTCAC	1.01
TCTCTGGATT	1.02
CAGAAGACAA	1.37
ATAGCAGGAG	1.09
TGCCATCTGA	1.04
CCTGATGGTT	0.996
TCAAGTTGCC	1
AGAAATATAG	0.991
TCGTCGATTT	1.16
TCAGGGCGCT	1.04
TGTGGTGAGG	1.01
TACCATGGAA	1.01
GACATGGTTT	0.956
TGTGATTCG	1.23
CCGTGTAATG	1.27
GGCGCTATCG	1.04
AAACGTGATA	1.06
GGTCACAATG	1.03
TAAGGTGTGC	1.04

Sequence	switch fluorescence ratio
GATACAGCAA	1.96
GAATCTTTCA	0.975
GAGGAGGTGG	0.995
CTACCGTGG	0.99
TGGGTAGTCG	0.996
CACGATGAGA	1.03
CATTCAGGAC	1.04
CGCTTGTCTT	1.01
TCGTATAAG	0.96
ACTAGGTGTT	1.28
GGGCGGGGTT	1.02
ACCCGCGCGA	1.22
GTGTCAGCGA	0.985
CGTGCCCGAT	0.969
TGTCGGACTG	1.01
CTGGAGCCCC	2.07
CTGCAATTAT	4.74
GCTTGTATAT	0.97
CGCGTATGGC	1.1
CGAGTGGTTC	1
GGTGTGGACT	0.969
AAAGTTATGC	0.968
GAGTTCGTTG	0.995

Sequence	switch fluorescence ratio
CAACGGATGG	0.989
CCAGTTAAGT	0.977
GTTATGTTAT	1.06
TTCCTCATTG	1.08
TGCAGTTGCC	1.05
TCATTTTATT	0.977
TTCTGTGTTA	1.01
GTGCAGAGTT	1.02
AGGTCTAGTA	0.953
TTATGAACTC	1.01
GCAATGTTCC	3.93
TGCGGGTCA	0.977
AAAATTAACC	1.07
TACGTTCGTG	1
GGTAGGGACT	0.97
GCAACCTCG	1.1
CATCTAAGGT	0.985
AGGTTGCCA	1.05
AGGTGGCAAG	0.951
GGGGCTGAGC	1.02
GGGTCGTTTT	0.955
CTGCAGGTTT	1.16
AAGCACTTAT	1.18

Sequence	switch fluorescence ratio
TGTGCCCAAC	0.98
TTTTGGAAT	0.948
GAATTTGGTT	1.01
ATAGTATTCC	1.08
CTTGTGTGTG	0.994
AGCGACGTAG	1.02
AGCAGGTGCT	1.16
AATGGGGAT	0.948
TGACAGTCTC	0.958
TGGGGCAAGA	1.41
TCAGGTTGTT	0.957
TGTAACTTTG	0.985
TACTGCTATT	1.13
TGCGTATATA	0.995
ATCGTTAAGT	0.97
ATGGGGCTTA	1.01
CTATGTTAGT	1.04
TGGGGATG	0.974
TAGTCAGTAG	1.04
TAAAAATAGT	0.957
CAGATGCTTA	1.02
TGATATTGGG	0.995
TATTTACGGC	1.01

Sequence	switch fluorescence ratio
CTCTTTCTAA	0.995
CTATCGGTCC	1.02
ATGGTGAGGT	1
TATGATCCTC	0.997
TGAACGTGC	1.02
AACGAGTTTA	0.999
CGAATTACCG	0.973
TTTTCAACC	1.05
TTTTTAGGA	0.991
TCATATAGT	1.03
GCGGGCTTCG	1
CTAGAGTGTG	0.976
TTCTTCCCCG	1.3
AAGTTCATGT	0.986
GGGAGAGTG	1.05
GACTCATCCT	1.04
CGTGTTGCGT	0.926
CTTAGTTAAT	0.986
ATGATCGAGG	1.01
CGCTTAGGTA	0.99
CTTGTCGATG	0.99
CTTTCAGGG	0.994
CTGAGTAGTG	1.02

Sequence	switch fluorescence ratio
TACAAAAATT	1.08
GCTCTGACGT	1.08
AACTGAGGTA	0.999
CAGAACGGGA	1.21
AGTCCCTACA	0.998
TAGGGCCACA	0.998
AGAACAATAA	1.02
CATAGGCAGC	1.06
GATCTGCTCG	1.02
AAAGATATTC	1.03
GCAAGGCTT	1.02
ACTAGATCAT	0.997
AGGAATCAGT	0.988
TTACGTCGGT	1.1
AAAATAAAAT	0.937
TCTATTAAA	1.02
AACAGGTTCC	1.08
AAAAGTATTG	0.989
GATTCGGG	0.958
GCTGACTTG	0.998
